For 14 molecules, TGI and GI50 results are on record in PubChem BioAssay (NCI).

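Briefly, cells in 96-well plates were exposed to five compound concentrations for 48 h, and endpoints were estimated by linear interpolation. GI50 is the concentration that inhibits growth by half. Definition used: TGI = concentration required for complete inhibition of growth.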

This assay deals with NCI-H322M lung. Description: inhibition of tumour cell growth, NCI panel, 48 h.

`COc1ccc(Oc2cccc(C3C4C(=O)N(c5ccc(C)c(Cl)c5)C(=O)C4ON3C(C(N)=O)c3ccccc3)c2)cc1` (stereo not given) displayed a TGI greater than 50 µM.

The molecule `CC1(C)CNCC(C)(OCc2ccccc2)C(=O)NC(C)(C)CNCC(C)(OCc2ccccc2)C(=O)N1` (stereo not given) yielded a TGI greater than 10 µM.

In the case of `Cc1c(-c2ccccc2)[nH]c2cc(Cl)ccc2c1=O`, the TGI was greater than 100 µM.

Take `CC1=C(CC(=O)c2cccc([N+](=O)[O-])c2)C(=O)c2ccccc2C1=O`: the GI50 was 57.6 µM and the TGI is greater than 100 µM.

As to `CCC1(O)C(=O)OCc2c1cc1n(c2=O)Cc2cc3c(NC(=O)CN)cccc3nc2-1` (stereo not given), the GI50 is 2.83 µM and the TGI was 40 µM.

The molecule `Cc1cc(C)nc(NS(=O)(=O)c2ccc(Nc3c4ccccc4nc4c(C(=O)Nc5ccc(S(=O)(=O)N=C(N)N)cc5)cccc34)cc2)n1` came in with a TGI greater than 100 µM.

With `CC1=NN(c2nc(N)nc(/C(C#N)=C\c3csc([N+](=O)[O-])c3)n2)C(C)(C)C1`, the TGI was greater than 100 µM.

`Cc1cc(C#Cc2ccc(C(C)(C)C)cc2)ccc1-n1c(/C=C/c2ccc(O)cc2O)nc2ccccc2c1=O`: the GI50 is 6.09 µM and the TGI came out at 19.6 µM.

Molecule `COc1cc(C(C)O)c[n+](Cc2ccccc2)c1` (stereo not given) showed a TGI greater than 100 µM.

With `COc1ccc(OC)c(CNc2ccc(C(=O)O)cc2)c1`, the TGI is greater than 100 µM.

For the molecule `COC(=O)c1cncc(/C=C/c2c(C)cc(O)cc2C)c1`, the GI50 is greater than 24 µM and the TGI is greater than 25 µM.

For `O=C(Nc1cccc(-n2cc(-c3ccncc3)c(-c3cc(O)cc(Cl)c3)n2)c1)c1cc(C(F)(F)F)cc(C(F)(F)F)c1`, the GI50 was 7.92 µM and the TGI is greater than 100 µM.

On to `CC1(C)OCC([C@H]2O[C@@H](CC(=S)NCCCCCCCCCCCCNC(=S)C[C@H]3O[C@@H](C4COC(C)(C)O4)[C@H]4OC(C)(C)O[C@H]43)[C@H]3OC(C)(C)O[C@H]32)O1` (stereo not given in full), for which the TGI is greater than 100 µM.

In the case of `C(=N/N(Cc1ccccc1)Cc1ccccc1)/c1ccccc1`, the GI50 was greater than 100 µM and the TGI was greater than 100 µM.
